Here are results for 39 sequences from publication PMC6555819.

The other results are listed elsewhere or left out.

The first test addresses T1, LXRb (Homo sapiens) (UniProt P55055).
T1 sequence: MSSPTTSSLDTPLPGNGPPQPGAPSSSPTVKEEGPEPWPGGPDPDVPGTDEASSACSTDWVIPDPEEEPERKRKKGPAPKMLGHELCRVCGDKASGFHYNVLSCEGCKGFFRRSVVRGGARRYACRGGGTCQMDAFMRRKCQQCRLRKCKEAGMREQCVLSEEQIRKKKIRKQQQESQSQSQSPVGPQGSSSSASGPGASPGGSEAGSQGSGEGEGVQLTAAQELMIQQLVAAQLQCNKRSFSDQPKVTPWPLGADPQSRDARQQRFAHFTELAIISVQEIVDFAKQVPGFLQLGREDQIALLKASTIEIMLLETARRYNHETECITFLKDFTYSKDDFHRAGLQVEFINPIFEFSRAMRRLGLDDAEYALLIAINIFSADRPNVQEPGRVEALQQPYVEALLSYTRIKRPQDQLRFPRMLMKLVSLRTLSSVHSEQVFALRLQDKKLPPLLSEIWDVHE
As to conditions: 270 nM, no RXRa, PBS pH 7.4, 2% milk, 0.02% Triton X-100, 1 mM DTT, BSA, 0.4 mg/ml salmon testes DNA; double strand, one strand shown.
As for “GCTGGAAGATGAAGAAGAACTATTGCTCGATGGAGAGCGATTGACAGCGTAGAATGAAGG”, the binding signal (PBM z-score against 500 random probes) was -0.4.
In turn, “GCAAACACAAAGTTTGGGCTGCCTTCTCTAGAGATTGCGATTGACAGCGTAGAATGAAGG” gave a binding signal (PBM z-score against 500 random probes) of 0.13.
For the sequence “GCCCGAGTAGGTTATGAGGGGGCATTCAGTGCGAATGCGATTGACAGCGTAGAATGAAGG”, the binding signal (PBM z-score against 500 random probes) is 9.2.
In turn, “GCATGTCAATGGTAGTTTGATGGGAATAGTATTGAGGCGATTGACAGCGTAGAATGAAGG” had a binding signal (PBM z-score against 500 random probes) of 0.24.
On the same count and under the same terms, then “GCATTTGAGATCTCAGTTTCTGCATACTGAATCACCGCGATTGACAGCGTAGAATGAAGG”, with 0.37; and “GCAAGTTGCAGGTTGACCTACGGTGGTGGTGGTCTAGCGATTGACAGCGTAGAATGAAGG”, with 0.07; and “GCTCGAGTAGGTTAGGGGGGCATTCAGGGATGAAGAGCGATTGACAGCGTAGAATGAAGG”, with 14.8.
Still for that read-out and setting: then “GCCCGAGTAGGTTACGGGGGGGCATTCAGTGCGAATGCGATTGACAGCGTAGAATGAAGG”, with 14.1.
As to “GCTCTAGTAGGTTACGGGGGCATTCAGGGATGAAGAGCGATTGACAGCGTAGAATGAAGG”, the binding signal (PBM z-score against 500 random probes) stood at 12.2.
The same measure, in the same setting: then “GCTCCCTGCCAGCCCTGGTCTGAAGCAAGCCTAGAGGCGATTGACAGCGTAGAATGAAGG”, with -0.81.
On the same count and under the same terms, in the case of “GCCTATGTAGGTTAAGGGGGGCATTCAGTTTGAAAGGCGATTGACAGCGTAGAATGAAGG” it was 14.1.
Same read-out and setting: then “GCCTATGTAGGTTGAGGGGGTCATTCAGTTTGAAAGGCGATTGACAGCGTAGAATGAAGG”, with 10.8; and “GCTCCCAGCCACTCAGGAGGCTGAGGCAGGAGAATTGCGATTGACAGCGTAGAATGAAGG”, with -2.09; and “GCGCCACCAGGCCTGCCTTACAAGAGCTCCTGAAGAGCGATTGACAGCGTAGAATGAAGG”, with -0.01.
As to “GCCCGAGTAGGTTAGGAGGGGGCATTCAGTGCGAATGCGATTGACAGCGTAGAATGAAGG”, the binding signal (PBM z-score against 500 random probes) came out at 10.5.
On the same count and under the same terms, in the case of “GCACTACTACTGCTGTTGAGAAACCTGCATTGTGGCGCGATTGACAGCGTAGAATGAAGG” it was 0.49; in that of “GCTCGAGTAGGTTACGGGGGGATTCAGGGATGAAGAGCGATTGACAGCGTAGAATGAAGG”, 14.4.
For “GCCAAAGACAGCTTTGCAAGGCCACTTCTGTTTGCTGCGATTGACAGCGTAGAATGAAGG”, the binding signal (PBM z-score against 500 random probes) is -0.08.
Same read-out and setting: in the case of “GCATCTGCATAGAGCTAGAGCTATTGATTCAAAGAGGCGATTGACAGCGTAGAATGAAGG” it was -1.12; in that of “GCCAAGAATCAGACTCTTAAGTAGATGCCTGTAGCTGCGATTGACAGCGTAGAATGAAGG”, -0.28; in that of “GCCAATGCCAGCTACCAGGAGGCTGAGGTGTGAGAGGCGATTGACAGCGTAGAATGAAGG”, -0.59.
“GCGTGGCTCAAAGTCATCAAGAGCATTCACATTGGAGCGATTGACAGCGTAGAATGAAGG”: the binding signal (PBM z-score against 500 random probes) was -0.51.
For the sequence “GCCCGAGTAGGTTACGAGGAGGCATTCAGTGCGAATGCGATTGACAGCGTAGAATGAAGG”, the binding signal (PBM z-score against 500 random probes) was -0.7.
Same read-out and setting: then “GCATACACTTCTGGAGGCCAGAGGTCTGAAATCAAGGCGATTGACAGCGTAGAATGAAGG”, with -0.45.

In another test the target is PPARg (Homo sapiens) (UniProt P37231). As to conditions: 180 nM, no RXRa, PBS pH 7.4, 2% milk, 0.02% Triton X-100, 1 mM DTT, BSA, 0.4 mg/ml salmon testes DNA; double strand, one strand shown.
UniProt P37231, sequence (P37231 29-505): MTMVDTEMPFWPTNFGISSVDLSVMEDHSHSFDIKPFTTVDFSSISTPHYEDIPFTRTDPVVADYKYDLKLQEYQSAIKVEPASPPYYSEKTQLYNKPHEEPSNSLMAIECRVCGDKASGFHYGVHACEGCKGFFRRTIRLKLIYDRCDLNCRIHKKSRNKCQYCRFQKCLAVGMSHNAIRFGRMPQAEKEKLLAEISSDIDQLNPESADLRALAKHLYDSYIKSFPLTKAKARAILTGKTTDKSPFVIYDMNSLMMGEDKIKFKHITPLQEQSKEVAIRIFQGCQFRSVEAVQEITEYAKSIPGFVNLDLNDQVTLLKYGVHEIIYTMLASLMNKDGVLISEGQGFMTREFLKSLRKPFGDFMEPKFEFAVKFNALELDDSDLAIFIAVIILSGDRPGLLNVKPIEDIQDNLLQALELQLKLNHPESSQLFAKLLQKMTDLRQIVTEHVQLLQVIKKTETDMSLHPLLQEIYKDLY
On to “GCGCCAGAGGTGGAATGATATGATATGTCTCTGTGTGCGATTGACAGCGTAGAATGAAGG”, for which the binding signal (PBM z-score against 500 random probes) was -0.76.
Same read-out and setting: in the case of “GCTAGGCTACAAACATGTACACCATGTTACTGCAAGGCGATTGACAGCGTAGAATGAAGG” it was -0.53.
The same measure, in the same setting: then “GCTGCCACAGAGGATACTGTGACGTTATGCATCACTGCGATTGACAGCGTAGAATGAAGG”, with -0.29.
In the case of “GCAAGAAACAACAAACTTAGTACCTAGAAACAAGAGGCGATTGACAGCGTAGAATGAAGG”, the binding signal (PBM z-score against 500 random probes) came out at 0.24.
As for “GCTCAAGGAGAAAGACACTCCTTTGAAGCGTTGGAAGCGATTGACAGCGTAGAATGAAGG”, the binding signal (PBM z-score against 500 random probes) is -1.24.
Take “GCGAGATTCCAGATGAGAACTGCTCAGCCAAACTCTGCGATTGACAGCGTAGAATGAAGG”: the binding signal (PBM z-score against 500 random probes) is -1.01.
Take “GCTGAGTCCCTGCACTAGTCGGTTTGAGCTGCTTGTGCGATTGACAGCGTAGAATGAAGG”: the binding signal (PBM z-score against 500 random probes) was -0.65.
Take “GCAAACTAAGCCAGGTCCTCACCTGTTCTCCGAGGCGCGATTGACAGCGTAGAATGAAGG”: the binding signal (PBM z-score against 500 random probes) was -0.37.
“GCTGAGACCTGTCACTCTTAGCCATGCTAGTGGTCAGCGATTGACAGCGTAGAATGAAGG”: the binding signal (PBM z-score against 500 random probes) was -0.9.
With “GCTTAAGGATGGACCATTGGCTAAAGCAATGTCAAAGCGATTGACAGCGTAGAATGAAGG”, the binding signal (PBM z-score against 500 random probes) is -0.17.
On to “GCATCCGTTCCTTGGAGGGAGTCTGCAGACTGGCTGGCGATTGACAGCGTAGAATGAAGG”, for which the binding signal (PBM z-score against 500 random probes) was -2.35.
The same measure, in the same setting: then “GCGAGTTTCAGAGGGAGGAACAGAAACAGATGGATGGCGATTGACAGCGTAGAATGAAGG”, with 0.5; and “GCCATGAGGACCTGCAGCGCAATGACCTCCGAGGCAGCGATTGACAGCGTAGAATGAAGG”, with -0.08.
Still for that read-out and setting: in the case of “GCCTGTGGAATCCAACATGCCAAATGCTTGCTTGAGGCGATTGACAGCGTAGAATGAAGG” it was -0.84.
Same read-out and setting: then “GCACTACATAAGTAATCATCTCCCTCTGCAACTGGGGCGATTGACAGCGTAGAATGAAGG”, with 0.41.

The next test addresses T2, THRa (Homo sapiens) (UniProt P10827).
T2 sequence: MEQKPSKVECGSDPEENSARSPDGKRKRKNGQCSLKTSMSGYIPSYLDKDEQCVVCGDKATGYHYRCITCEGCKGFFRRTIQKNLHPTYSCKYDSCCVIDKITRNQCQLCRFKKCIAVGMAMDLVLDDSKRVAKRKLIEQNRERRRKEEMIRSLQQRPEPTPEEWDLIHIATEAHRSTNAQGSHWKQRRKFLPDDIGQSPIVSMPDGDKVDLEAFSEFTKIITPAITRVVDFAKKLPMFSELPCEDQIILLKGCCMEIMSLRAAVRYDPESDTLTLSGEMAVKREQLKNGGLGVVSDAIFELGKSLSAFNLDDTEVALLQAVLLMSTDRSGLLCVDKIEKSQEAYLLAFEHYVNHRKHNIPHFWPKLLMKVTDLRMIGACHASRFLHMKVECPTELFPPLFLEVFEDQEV
The note with it: 90 nM, no RXRa, PBS pH 7.4, 2% milk, 0.02% Triton X-100, 1 mM DTT, BSA, 0.4 mg/ml salmon testes DNA; double strand, one strand shown.
Turning to “GCATGTCAATGGTAGTTTGATGGGAATAGTATTGAGGCGATTGACAGCGTAGAATGAAGG”, the binding signal (PBM z-score against 500 random probes) is -0.03.
As for “GCGCCACCAGGCCTGCCTTACAAGAGCTCCTGAAGAGCGATTGACAGCGTAGAATGAAGG”, the binding signal (PBM z-score against 500 random probes) was -0.51.
With “GCATCTGCATAGAGCTAGAGCTATTGATTCAAAGAGGCGATTGACAGCGTAGAATGAAGG”, the binding signal (PBM z-score against 500 random probes) is -1.95.
